Results reported in the supplement of paper PMC6531468.
The other results are listed elsewhere or left out. Read counts after selection give these values, which scatter widely. Each score is taken over the longer molecules that contain the sequence shown.

Target: IMP3 full-length (UniProt O00425)
Experiment: 6-mer SELEX enrichment z-score vs GST control; IMP3 is the RNA-binding protein IGF2BP3; higher = more enriched by binding
Conditions: construct: FL IMP3 (1-579); SELEX round: R4
Description: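 SELEX-seq with GST-tagged full-length IMP3 and an N40 RNA pool, round 4. Each 6-mer is scored as an enrichment z-score of sequence tags containing it, normalised to the matching GST SELEX round. RNA written as DNA (T = U).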

UniProt O00425, sequence (O00425 whole entry): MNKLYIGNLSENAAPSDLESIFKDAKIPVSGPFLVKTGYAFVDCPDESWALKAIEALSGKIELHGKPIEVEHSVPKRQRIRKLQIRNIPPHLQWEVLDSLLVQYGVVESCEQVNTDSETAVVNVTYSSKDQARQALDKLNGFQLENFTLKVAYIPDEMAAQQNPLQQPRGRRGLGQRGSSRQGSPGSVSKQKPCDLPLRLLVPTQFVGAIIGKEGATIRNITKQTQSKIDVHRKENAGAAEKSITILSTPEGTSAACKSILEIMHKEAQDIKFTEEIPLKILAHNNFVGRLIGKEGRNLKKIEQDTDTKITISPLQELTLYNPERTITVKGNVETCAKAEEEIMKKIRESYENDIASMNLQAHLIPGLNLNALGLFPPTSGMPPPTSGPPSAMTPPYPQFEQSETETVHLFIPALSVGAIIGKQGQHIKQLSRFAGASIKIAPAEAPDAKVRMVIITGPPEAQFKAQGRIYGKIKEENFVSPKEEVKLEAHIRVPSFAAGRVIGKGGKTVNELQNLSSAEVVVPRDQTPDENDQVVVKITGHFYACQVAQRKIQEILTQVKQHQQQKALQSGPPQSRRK

Sequence	6-mer SELEX enrichment z-score
TTTGAT	0.039
CATTGA	0.364
TCACGG	0.909
GGATCC	-0.241
GTACGG	0.671
TTGCAC	0.396
CTCACA	0.85
GACCAC	-0.49
ACTGTT	-0.109
TTCGGT	0.248
AACAAA	-0.842
TGGTAG	0.095
ACCCTA	-1.48
TTGGGC	-0.103
TACACT	0.659
GCCTTC	0.031
ATCCGT	0.058
CAGCGT	-1.28
TTCTGT	0.337
CCACGC	-0.097

Sequence	6-mer SELEX enrichment z-score
CTTAGT	-0.19
TGTCGA	-0.281
CCGTTG	-0.284
CTAGAC	-0.776
ACGCCA	0.175
TCGGCA	3.04
GTCGTA	-0.114
TTATAG	0.167
ACCGTC	0.17
CTTGGT	0.22
GGGCAT	1.64
CCTCAT	0.464
TCGTCA	0.374
ACAATA	2.15
ATTCTC	0.276
AAACAC	0.493
TTAGTC	0.208
TATAGC	0.135
AGGTAG	0.006
TCGACT	-0.362
